For 29 molecules, activity change, negative = inhibition results are on record in PubChem BioAssay AID1745853 (National Center for Advancing Translational Sciences (NCATS), 2022).

Structures are written as SMILES. This is one part of the list. Further columns of the screen follow, without active or inactive calls.

Common to all, as to experiment: Primary Screen for Target Class Profiling of Small Molecule Inhibitors of Methyltransferases
The target in assay [1] is Glycine N-methyltransferase (Homo sapiens) (UniProt Q14749). The note with it: purified enzyme, MTase-Glo SAH luminescence; measured here: GNMT inhibition; at 40 µM; stronger effect = lower value. In short, it runs like this:
(§1)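 Each enzyme was assayed with SAM and its substrate. SAH formation detected by MTase-Glo luminescence; single-point 40 uM screen[…].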

The target in assay [2] is Guanidinoacetate N-methyltransferase (Homo sapiens) (UniProt Q14353). To be noted: purified enzyme, MTase-Glo SAH luminescence; measured here: GAMT inhibition; at 40 µM; stronger effect = lower value. In short, it runs like this:
as §1

Assay [3] has as its target Histamine N-methyltransferase (Homo sapiens) (UniProt P50135). To be noted: purified enzyme, MTase-Glo SAH luminescence; measured here: HNMT inhibition; at 40 µM; stronger effect = lower value. The procedure, abridged:
as §1

Assay [4] concerns the target Nicotinamide N-methyltransferase (Homo sapiens) (UniProt P40261). To be noted: purified enzyme, MTase-Glo SAH luminescence; measured here: NNMT inhibition; at 40 µM; stronger effect = lower value. The procedure, abridged: as §1
Assay [5] concerns the target Phenylethanolamine N-methyltransferase (Homo sapiens) (UniProt P11086). To be noted: purified enzyme, MTase-Glo SAH luminescence; measured here: PNMT inhibition; at 40 µM; stronger effect = lower value. The procedure, abridged: as §1
On the % scale 0 is the no-effect control and ±100 the full control effect.

For `CC(C)CCN1C(=O)CC[C@]2(C(=O)NCc3cccs3)CCCC[C@@H]12`, the activity change, negative = inhibition in assay [1] was -1.05%; in assay [2] it was 1.52%; in assay [3], 1.25%; in assay [4], -5.74%; in assay [5] it was 1.24%.
On the same counts, the results for `Cc1cccc2nc(CNC(=O)c3cccc(C4CCNC4)c3)cn12` (stereo not given) are -2.23%, 0.272%, -13%, -0.026% and -4.85%.
`CCn1nccc1C(=O)N1CCCC(c2nnc(CN3CCCC3)n2C)C1` (stereo not given): the activity change, negative = inhibition was -5.17% in assay [1]; -14.7% in assay [2]; -5.45% in assay [3]; -18.4% in assay [4]; -16.3% in assay [5].
On the same counts, the results for `COc1ccc(-c2n[nH]n3c2nc(=O)c2ccc(C(=O)NCCc4ccc(Cl)cc4)cc23)cc1` are -6.05%, 1.05%, 3.41%, -18.2% and -7.4%.
On the same counts, the results for `Cc1ccccc1C(=O)N1CC/C(=N\OS(=O)(=O)O)c2ccc(Cl)cc21` are -4.92%, 5.21%, -0.512%, -21% and -8.05%.
On the same counts, the results for `COc1ccc(OC)c(S(=O)(=O)N2CCC[C@H](n3c(=O)n(C)c4cccnc43)C2)c1` are -7.94%, 3.13%, -3.88%, -9.17% and -0.81%.
In the case of `CCOc1ccc(CN2C(=O)c3nc4ccccc4n3CC2(C)C(=O)NC2CCC(C)CC2)cc1` (stereo not given), the activity change, negative = inhibition was -8.48% in assay [1]; 0.304% in assay [2]; -0.912% in assay [3]; -4.44% in assay [4]; -2.19% in assay [5].
For the molecule `COC(=O)C1=C[C@@H](O)[C@@H](O)[C@H](O[C@@H]2O[C@H](CO)[C@@H](O)[C@H](O)[C@H]2OC(=O)/C=C/c2ccccc2)C1`, the activity change, negative = inhibition in assay [1] was 0%; in assay [2], 1%; in assay [3], 5.16%; in assay [4] it was -14.8%; in assay [5], 5.55%.
On to `Cc1cc(CN2CCC3(CC2)CC(c2ccccc2)C(=O)N(C2CC2)C3)on1` (stereo not given), for which the activity change, negative = inhibition in assay [1] was found to be 0.885%; in assay [2] it was 0.3%; in assay [3], 2.62%; in assay [4] it was 0.707%; in assay [5] it was 4.47%.
For `CCCn1cc(-c2ccnc(NCc3c(F)ccc(C)c3F)n2)c(C)n1`, in that order: -9.02%, -6.84%, -10.3%, -19.7% and -2.65%.
For `O=C(/C=C/c1ccc(O)cc1)OC[C@@]1(O)C=C[C@@H]2C(C(=O)O)=CO[C@@H](O[C@@H]3O[C@H](CO)[C@@H](O)[C@H](O)[C@H]3O)[C@@H]21`, in that order: -8.26%, -13.3%, 3.79%, -24.4% and -0.99%.
For `O=C(CCn1ccc2cc(S(=O)(=O)N3CCCCC3)ccc21)N1CCN(c2ccccc2F)CC1`, in that order: 3.98%, -2.89%, -0.157%, -3.93% and -3.64%.
`O=c1[nH]c2ccccc2n1Cc1ccccc1Cl`: the activity change, negative = inhibition in assay [1] was -13.7%; in assay [2] it was 1.77%; in assay [3], -13.5%; in assay [4] it was -3.95%; in assay [5], 4.13%.
On the same counts, the results for `COc1cc(O)cc(C)c1C(=O)OC1C(CO)OC(OC2C(O)C(O)C(O)C(O)C2O)C(O)C1O` (stereo not given) are 2.12%, 5.65%, -3.94%, -4.16% and 7.23%.
Regarding `COC(=O)c1ncn2c1C(=O)N(c1cc(C)ccc1C)C(C)(C(=O)NCCCOC(C)C)C2` (stereo not given), the activity change, negative = inhibition is -2.11% in assay [1]; 0.231% in assay [2]; 1.77% in assay [3]; 0.606% in assay [4]; 0.136% in assay [5].
Regarding `CCOc1ccc(N2C(=O)c3cc(-c4ccco4)nn3CC2(C)C(=O)NC2CCCCC2)cc1` (stereo not given), the activity change, negative = inhibition in assay [1] is -5.96%; in assay [2], -0.428%; in assay [3], 0.591%; in assay [4], -2.87%; in assay [5], -1.15%.
On the same counts, the results for `Cc1ccc(NC(=O)CSc2nnc3n(C)c(=O)c4ccc(C(=O)NC5CCCC5)cc4n23)c(C)c1` are -2.63%, 1.66%, -15.2%, -2.53% and 11.6%.
In the case of `O=C(NCc1ccc2c(c1)OCO2)c1ccc2c(=O)nc3c(-c4ccccc4F)n[nH]n3c2c1`, the activity change, negative = inhibition in assay [1] is -14.8%; in assay [2], 1.79%; in assay [3], -3.69%; in assay [4], -8.7%; in assay [5], -4.3%.
For `CCCNC(=O)N1CCn2cccc2C1C(C)C` (stereo not given), in that order: 8.85%, 0%, 0.905%, 1.46% and 3.04%.
Take `CCc1ccc(CNC(=O)CN2C(=O)NC3(CCOCC3)C2=O)cc1`: the activity change, negative = inhibition is 0.827% in assay [1]; -0.811% in assay [2]; 2.08% in assay [3]; -6.75% in assay [4]; 0.527% in assay [5].
For `Cc1ccccc1CSc1nnc2n(Cc3ccccc3)c(=O)c3ccccc3n12`, in that order: 1.95%, 0.186%, 1.74%, -1.7% and 1.4%.
For `Cc1ccc(C)c(Cn2nc3n(C(C)C)c(=O)c4ccc(C(=O)NC5CCCCC5)cc4n3c2=O)c1`, in that order: 6.07%, 0%, 9.09%, 6.78% and 6.84%.
On the same counts, the results for `Cn1c(=O)n(C)c2cc(S(=O)(=O)Nc3cccc(Br)c3)ccc21` are -4.27%, 1.9%, -3.43%, 3.84% and -4.91%.
Regarding `CCc1ccccc1NC(=O)CSc1nnc2n(Cc3ccccc3)c(=O)c3ccccc3n12`, the activity change, negative = inhibition in assay [1] was -3.39%; in assay [2], -3%; in assay [3], 7.16%; in assay [4], -11.5%; in assay [5] it was -4.12%.
For `O=c1cc(-c2ccc(O)cc2)oc2cc(O)cc(O)c12`, in that order: -30.1%, -5.59%, -17.5%, -17.5% and -10.3%.
For `CC1(C(=O)NCc2ccc(F)cc2)Cn2cnc(C(=O)NCc3ccc(F)cc3)c2C(=O)N1C1CC1` (stereo not given), in that order: 2.95%, 1.42%, 11.9%, 4.22% and 9.24%.
For `CC(C)CN[C@H]1CO[C@H]2[C@@H]1OC[C@@H]2Nc1nccc(-c2cccs2)n1`, in that order: -23%, -7.52%, -6.11%, -11.6% and -2.72%.
Take `CC(C)CCn1c(=O)c2ccccc2n2c(SCC(=O)Nc3cc(F)ccc3F)nnc12`: the activity change, negative = inhibition was 2.45% in assay [1]; 2.07% in assay [2]; 9.27% in assay [3]; -10.2% in assay [4]; 4.61% in assay [5].
On the same counts, the results for `CCCn1c(=O)c2ccccc2n2c(SCC(=O)Nc3ccc(OC)cc3)nnc12` are -0.625%, 4.86%, 8.14%, 3.12% and 3.23%.
